Source: patent US10376499B2, “Combination therapy for treatment of resistant bacterial infections” (priority 2014, dated 2019)
Values after ≈ are worked out from the molar mass of the structure shown. Structures can show the parent of a compound that is named as a salt.

Assays:
[1] = test system: A. baumannii isolate containing OXA-94, OXA-23, and AmpC (ARC5081); format: cell-based, Acinetobacter baumannii; conditions: compound 1 added to sulbactam/imipenem regimen (Cmax 10 μg/mL QID); compound 1 Cmax as low as 2 μg/mL; no evidence of regrowth by 24 hours
[2] = test system: A. baumannii isolate containing OXA-94, OXA-23, and AmpC (ARC5081); experiment: microbe, parasite or virus in culture; format: cell-based; conditions: Acinetobacter baumannii
A. baumannii = experiment: MIC by broth microdilution (CLSI), panel of 60 A. baumannii clinical isolates (Example 1)
[3] = Acinetobacter baumannii, strain ARC2059, PSE-2, PSE-1
[4] = Acinetobacter baumannii, strain ARC2597 (A. baumannii/calcoaceticus complex), OXA*
[5] = Acinetobacter baumannii, strain ARC2720 (A. baumannii/calcoaceticus complex), OXA*
[6] = Acinetobacter baumannii, strain ARC2582, OXA*
[7] = Acinetobacter baumannii, strain ARC2719, OXA*
[8] = Acinetobacter baumannii, strain ARC2728 (A. baumannii/calcoaceticus complex), OXA*
[9] = Acinetobacter baumannii, strain ARC5090, OXA*

Molecule | MIC [2] [µg/mL] | MIC (A. baumannii; [3]) [µg/mL] | MIC (A. baumannii; [4]) [µg/mL] | MIC (A. baumannii; [5]) [µg/mL] | MIC (A. baumannii; [6]) [µg/mL] | MIC (A. baumannii; [7]) [µg/mL] | MIC (A. baumannii; [8]) [µg/mL] | MIC (A. baumannii; [9]) [µg/mL] | other results
CC1=C[C@@H]2CN(C(=O)N2OS(=O)(=O)O)[C@@H]1C(N)=O [Compound 1, (2S,5R)-2-carbamoyl-3-methyl-7-oxo-1,6-diazabicyclo[3.2.1]oct-3-en-6-yl hydrogen sulfate] | 128 |  |  |  |  |  |  |  | bacterial response (bacterial burden timecourse) [1]: rapid and cidal response
C[C@@H](O)[C@H]1C(=O)N2C(C(=O)O)=C(SCCNC=N)C[C@H]12 [Imipenem, (5R,6S)-3-[[2-(formimidoylamino)ethyl]thio]-6-[(R)-1-hydroxyethyl]-7-oxo-1-azabicyclo[3.2.0]hept-2-ene-2-carboxylic acid] | 16 (≈ 53.4 µM) |  |  |  |  |  |  |  | 
C[C@H]1COc2c(N3CCN(C)CC3)c(F)cc3c(=O)c(C(=O)O)cn1c23 [LEVO, levofloxacin] |  | > 32 | < 0.03 | 2 (≈ 5.53 µM) |  |  |  |  | 
C[C@@H](O)[C@H]1C(=O)N2C(C(=O)O)=C(S[C@@H]3CN[C@H](C(=O)N(C)C)C3)[C@H](C)[C@H]12 [Meropenem, meropenem] |  | 0.5 (≈ 1.3 µM) |  | 1 (≈ 2.61 µM) | 0.25 (≈ 0.652 µM) | 0.25 (≈ 0.652 µM) | 0.25 (≈ 0.652 µM) | 0.25 (≈ 0.652 µM) | 
CC1(C)[C@H](C(=O)O)N2C(=O)C[C@H]2S1(=O)=O [Sulbactam, (2S,5R)-3,3-dimethyl-7-oxo-4-thia-1-azabicyclo[3.2.0]heptane-2-carboxylic acid 4,4-dioxide] | 8 (≈ 34.3 µM) |  | 1 (≈ 4.29 µM) | 2 (≈ 8.57 µM) | 1 (≈ 4.29 µM) | 2 (≈ 8.57 µM) | 2 (≈ 8.57 µM) | 2 (≈ 8.57 µM) | 
CN(C)[C@@H]1C(O)=C(C(N)=O)C(=O)[C@@]2(O)C(O)=C3C(=O)c4c(O)cccc4[C@@](C)(O)[C@H]3C[C@@H]12 [TET, tetracycline] |  | 4 (≈ 9 µM) | 1 (≈ 2.25 µM) | 2 (≈ 4.5 µM) | 2 (≈ 4.5 µM) | 2 (≈ 4.5 µM) | 1 (≈ 2.25 µM) | 2 (≈ 4.5 µM) | 
gentamycin |  |  |  |  |  |  |  |  | MIC (A. baumannii; strain ARC2719, OXA*): 0.5 µg/mL; MIC (A. baumannii; strain ARC2720 (A. baumannii/calcoaceticus complex), OXA*): 0.5 µg/mL; MIC (A. baumannii; strain ARC2728 (A. baumannii/calcoaceticus complex), OXA*): 0.25 µg/mL
